Values marked as one replicate rest on one cluster of the flow cell; about a third of the high ones do not repeat.
tested on: ATP; assay: switch fluorescence ratio, 500 uM ATP over buffer (Cy3 cluster intensity, sum of 5 cycles each) (fold (ratio)); higher = stronger signal-on switching upon ATP binding; sequences stand for … in TCGTCGGCAGCGTCAGATGTGTATAAGAGACAGTTTTTTTTTTTTTTTTTTTTTTTTT…TC; settings: aptamer strand: ATP DNA aptamer (quencher-CACCTGGGGGAGTATTGCGGAGGAAGG + anchor), 100 nM annealed; ATP concentration: 500 uM; one replicate
Outline: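 The quencher-labelled ATP aptamer, at 100 nM, was annealed to Cy3-labelled switching-strand clusters on a modified Illumina MiSeq flow-cell. The clusters were imaged in selection buffer, then after 15 min with 500 uM ATP at 22 °C, and this buffer/ATP cycle ran five times with NaOH stripping and re-annealing between runs. Per-cluster fluorescence ratios, summed target-cycle over summed buffer-cycle Cy3 intensity, were averaged per switch-domain sequence. Clusters outside 100-1000 RFU were excluded.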
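Also: ATP exposure 15 min at 22 °C before imaging.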

Sequence	switch fluorescence ratio
TCGATATGCG	0.923
TCGATCCGGA	1.11
TCGATGAGAT	0.991
TCGATGGGCT	0.994
TCGATTGCTT	1.01
TCGCAAATAT	4.38
TCGCAATGAA	5.64
TCGCAGGCCC	3.25
TCGCAGGTCA	1.05
TCGCAGGTCG	1.02
TCGCATTTAT	1.17
TCGCCAATCA	1.09
TCGCCATAGT	1.23
TCGCCATTCA	1.05
TCGCCCAAGT	1.03
TCGCCGAGA	1.04
TCGCCTACT	1.13
TCGCCTAGGG	1.03
TCGCGTTAGC	0.949
TCGCTACCGT	1.01
TCGCTACTAA	1.2
TCGCTCCTCT	1.05
TCGCTGGGGC	1.02
TCGCTGTATA	1
TCGCTTAACC	1.03

Sequence	switch fluorescence ratio
TCGCTTGGTC	1.07
TCGGAAATA	1
TCGGAAGGCC	1.04
TCGGAAGGGA	0.976
TCGGCAAACT	3.22
TCGGCATCT	0.984
TCGGCCCGCC	1
TCGGCCTGGT	1.02
TCGGCGCGAA	1.19
TCGGCTCAGT	0.979
TCGGCTTCAA	0.979
TCGGCTTTGC	1.07
TCGGGAAATG	1.25
TCGGGACGCT	1.03
TCGGGATTGC	1.07
TCGGGCTCGT	0.987
TCGGGCTTAG	1.02
TCGGGGGT	1.01
TCGGGTATA	1.01
TCGGTAAGTT	0.978
TCGGTACTTA	1.07
TCGGTCAGCG	1.01
TCGGTCCGAC	0.955
TCGGTCCTTG	1.02
TCGGTCGCGA	0.986

Sequence	switch fluorescence ratio
TCGGTCTAAT	0.987
TCGGTCTCGC	1.02
TCGGTCTTC	0.987
TCGGTGACTC	0.961
TCGGTGTGGG	0.987
TCGGTTAGAG	1.02
TCGGTTGTGG	0.994
TCGTAAAAGC	1.09
TCGTAAACCT	2.63
TCGTACCTTA	1.05
TCGTACGGAG	1.01
TCGTACTAAT	1.01
TCGTATGAGA	1.01
TCGTATTAT	0.982
TCGTATTCAA	1
TCGTATTGGA	0.993
TCGTATTGGC	0.988
TCGTCATCGC	1.11
TCGTCGAAAG	1.01
TCGTCGGATT	0.966
TCGTCGGTCG	0.958
TCGTGACCTG	0.97
TCGTGGATG	1
TCGTGGGCAA	1.92
TCGTGTACCT	1.09

Sequence	switch fluorescence ratio
TCGTGTATAA	0.97
TCGTGTTACC	1.01
TCGTGTTGCG	1.05
TCGTTATCGA	1
TCGTTCGTC	0.971
TCGTTCGTGC	1.06
TCGTTCGTTC	1
TCGTTGAAAC	0.961
TCGTTGAATC	0.991
TCGTTGACAG	0.936
TCGTTGAGCT	0.981
TCGTTGCCCC	1.15
TCGTTTACGT	1
TCGTTTCAGG	0.991
TCTAAAAGGA	0.936
TCTAAATACT	1.38
TCTAACAGGG	1.11
TCTAACGAGT	1.03
TCTAAGGGTC	0.95
TCTAAGGTCC	1
TCTAAGTTG	1.01
TCTAATTTTT	0.999
TCTACCAACT	1.09
TCTACTGTGA	0.996
TCTAGCCCGT	0.973
